Laboratory results: patent US12281149B2, “Modulators of G-protein coupled receptors” (priority 2021, dated 2025)
At least one structure is not confirmed: it was looked up by name or label, or the drawing left a doubt. *1 amine or outer side, *2 acyl side, *3 side chain or, on linkers, in order; H or OH if unused. Where a SMILES comes first, the peptide text is derived from it. Side-chain parts run from the residue outwards. [ ]: non-standard residue; d: D form. The star is where a group is joined. Isobutyryl(2-(3-CN-5-F-Ph)) = CC(C)(C(=O)*)c1cc(F)cc(C#N)c1; C20 diacid = O=C(O)CCCCCCCCCCCCCCCCCCC(=O)*; γGlu = O=C(O)[C@H](CCC(=O)[*:2])N[*:1]; X60 = O=C(C1(c2cccnc2)CCCC1)*; X24 = O=C(C1(c2cccnc2)CCC1)*; X66 = NC(=O)C1(C(=O)*)CCC1; AEEA = NCCOCCOCC(=O)O; Aib = CC(C)(N)C(=O)O; CO = O=C([*:1])[*:2]; X12 = Fc1cccc(N*)c1; GABA = NCCCC(=O)O; βAla = NCCC(=O)O

Experiments:
Format in all cases: cell-based
[1] = target: T1, GIP receptor (Homo sapiens, UniProt P48546); experiment: PathHunter β-arrestin assay, GIP receptor; design: host or cells: PathHunter CHO-K1 GIPR β-Arrestin Cell Line
T1 sequence (P48546 22-466): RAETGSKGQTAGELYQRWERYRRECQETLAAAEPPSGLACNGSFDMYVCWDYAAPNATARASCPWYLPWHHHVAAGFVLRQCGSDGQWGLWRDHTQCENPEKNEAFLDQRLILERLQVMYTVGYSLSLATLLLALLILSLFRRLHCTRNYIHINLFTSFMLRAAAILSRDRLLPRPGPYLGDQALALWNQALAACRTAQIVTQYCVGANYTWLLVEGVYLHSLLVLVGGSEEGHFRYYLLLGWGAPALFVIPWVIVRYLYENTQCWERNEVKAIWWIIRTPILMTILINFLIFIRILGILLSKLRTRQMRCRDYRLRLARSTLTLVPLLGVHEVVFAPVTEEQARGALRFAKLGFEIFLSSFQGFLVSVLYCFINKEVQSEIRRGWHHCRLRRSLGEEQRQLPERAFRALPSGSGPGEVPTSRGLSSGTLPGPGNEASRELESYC

[2] = target: T2, GLP-1 receptor (Homo sapiens, UniProt P43220); experiment: HitHunter cAMP assay, GLP-1 receptor
[3] = target: T2, GLP-1 receptor; experiment: PathHunter β-arrestin assay, GLP-1 receptor; design: host or cells: PathHunter CHO-K1 GLP1R β-Arrestin Cell Line
[4] = target: T1, GIP receptor; experiment: HitHunter cAMP assay, GIP receptor
[5] = β-arrestin-2 recruitment, PathHunter CHO-K1 GIPR β-Arrestin Cell Line, 90 min at 37° C.; normalized to GIP; read-out: GIPR β Arrestin EC50
[6] = CHO cells stably expressing human GLP-1 receptor, cAMP accumulation, 30 min; read-out: EC50 GLP-1R
[7] = β-arrestin-2 recruitment, PathHunter CHO-K1 GLP1R β-Arrestin Cell Line, 90 min at 37° C.; normalized to GLP-1; read-out: GLP-1R β Arrestin EC50
[8] = CHO cells stably expressing GIP receptor, cAMP accumulation, 30 min; read-out: EC50 GIP-1R

T2 sequence (P43220 24-463): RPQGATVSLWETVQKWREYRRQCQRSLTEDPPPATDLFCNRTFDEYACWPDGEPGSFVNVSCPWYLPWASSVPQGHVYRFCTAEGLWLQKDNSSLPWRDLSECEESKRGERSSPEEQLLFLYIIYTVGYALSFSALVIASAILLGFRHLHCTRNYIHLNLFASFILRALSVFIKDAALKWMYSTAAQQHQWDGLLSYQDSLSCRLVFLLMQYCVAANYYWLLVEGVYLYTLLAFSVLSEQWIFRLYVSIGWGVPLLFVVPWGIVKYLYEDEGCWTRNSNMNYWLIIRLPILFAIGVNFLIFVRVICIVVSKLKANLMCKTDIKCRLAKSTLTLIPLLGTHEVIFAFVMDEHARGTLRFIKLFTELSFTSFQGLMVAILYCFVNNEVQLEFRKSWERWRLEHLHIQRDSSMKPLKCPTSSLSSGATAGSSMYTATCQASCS

CC[C@H](C)[C@H](NC(=O)[C@H](CC(C)C)NC(=O)[C@H](Cc1c[nH]c2ccccc12)NC(=O)[C@H](CCC(N)=O)NC(=O)[C@@H](NC(=O)[C@H](Cc1ccccc1)NC(=O)[C@H](C)NC(=O)[C@H](CCCCNC(=O)COCCOCCNC(=O)COCCOCCNC(=O)CC[C@H](NC(=O)CCCCCCCCCCCCCCCCCCC(=O)O)C(=O)O)NC(=O)[C@H](CCC(N)=O)NC(=O)[C@H](C)NC(=O)[C@@H](NC(=O)[C@H](CCCCN)NC(=O)[C@H](CC(=O)O)NC(=O)[C@H](CC(C)C)NC(=O)C(C)(C)NC(=O)[C@@H](NC(=O)[C@H](CO)NC(=O)[C@H](Cc1ccc(O)cc1)NC(=O)[C@H](CC(=O)O)NC(=O)[C@H](CO)NC(=O)[C@@H](NC(=O)[C@H](Cc1ccccc1)NC(=O)[C@@H](NC(=O)CNC(=O)[C@H](CCC(=O)O)NC(=O)CCNC(=O)C1(c2cccnc2)CCC1)[C@@H](C)O)[C@@H](C)O)[C@@H](C)CC)[C@@H](C)CC)C(C)C)C(=O)N[C@@H](C)C(=O)NCC(=O)NCC(=O)N1CCC[C@H]1C(=O)N[C@@H](CO)C(=O)N[C@@H](CO)C(=O)NCC(=O)N[C@@H](C)C(=O)N1CCC[C@H]1C(=O)N1CCC[C@H]1C(=O)N1CCC[C@H]1C(=O)N[C@@H](CO)C(N)=O [Compound 255] ({X24-βAla}-EGTFTSDYSI[Aib]LDKIAQK([AEEA-AEEA-γGlu-C20 diacid])AFVQWLIAGGPSSGAPPPS-NH2; C-terminus assumed)
EC50 [1, 5]: > 1000 nM | EC50 [2, 6]: 0.1 to 1 nM | EC50 [3, 7]: > 1000 nM | EC50 [4, 8]: 1 to 10 nM

CC[C@H](C)[C@H](NC(=O)[C@H](CC(C)C)NC(=O)[C@H](Cc1c[nH]c2ccccc12)NC(=O)[C@H](CCC(N)=O)NC(=O)[C@@H](NC(=O)[C@H](Cc1ccccc1)NC(=O)[C@H](C)NC(=O)[C@H](CCCCNC(=O)COCCOCCNC(=O)COCCOCCNC(=O)CC[C@H](NC(=O)CCCCCCCCCCCCCCCCCCC(=O)O)C(=O)O)NC(=O)[C@H](CCC(N)=O)NC(=O)[C@H](C)NC(=O)[C@@H](NC(=O)[C@H](CCCCN)NC(=O)[C@H](CC(=O)O)NC(=O)[C@H](CC(C)C)NC(=O)C(C)(C)NC(=O)[C@@H](NC(=O)[C@H](CO)NC(=O)[C@H](Cc1ccc(O)cc1)NC(=O)[C@H](CC(=O)O)NC(=O)[C@H](CO)NC(=O)[C@@H](NC(=O)[C@H](Cc1ccccc1)NC(=O)[C@@H](NC(=O)CNC(=O)[C@H](CCC(=O)O)NC(=O)CCNC(=O)C1(C(N)=O)CCC1)[C@@H](C)O)[C@@H](C)O)[C@@H](C)CC)[C@@H](C)CC)C(C)C)C(=O)N[C@@H](C)C(=O)NCC(=O)NCC(=O)N1CCC[C@H]1C(=O)N[C@@H](CO)C(=O)N[C@@H](CO)C(=O)NCC(=O)N[C@@H](C)C(=O)N1CCC[C@H]1C(=O)N1CCC[C@H]1C(=O)N1CCC[C@H]1C(=O)N[C@@H](CO)C(N)=O [Compound 257] ({X66-βAla}-EGTFTSDYSI[Aib]LDKIAQK([AEEA-AEEA-γGlu-C20 diacid])AFVQWLIAGGPSSGAPPPS-NH2; C-terminus assumed)
EC50 ([1]; read-out: GIPR β Arrestin EC50; β-arrestin-2 recruitment, PathHunter CHO-K1 GIPR β-Arrestin Cell Line, 90 min at 37° C.; normalized to GIP): > 1000 nM | EC50 ([2]; read-out: EC50 GLP-1R; CHO cells stably expressing human GLP-1 receptor, cAMP accumulation, 30 min): < 0.1 nM | EC50 ([3]; read-out: GLP-1R β Arrestin EC50; β-arrestin-2 recruitment, PathHunter CHO-K1 GLP1R β-Arrestin Cell Line, 90 min at 37° C.; normalized to GLP-1): > 1000 nM | EC50 ([4]; read-out: EC50 GIP-1R; CHO cells stably expressing GIP receptor, cAMP accumulation, 30 min): 1 to 10 nM

CC[C@H](C)[C@H](NC(=O)[C@H](CC(C)C)NC(=O)[C@H](Cc1c[nH]c2ccccc12)NC(=O)[C@H](CCC(N)=O)NC(=O)[C@@H](NC(=O)[C@H](Cc1ccccc1)NC(=O)[C@H](C)NC(=O)[C@H](CCCCNC(=O)COCCOCCNC(=O)COCCOCCNC(=O)CC[C@H](NC(=O)CCCCCCCCCCCCCCCCCCC(=O)O)C(=O)O)NC(=O)[C@H](CCC(N)=O)NC(=O)[C@H](C)NC(=O)[C@@H](NC(=O)[C@H](CCCCN)NC(=O)[C@H](CC(=O)O)NC(=O)[C@H](CC(C)C)NC(=O)C(C)(C)NC(=O)[C@@H](NC(=O)[C@H](CO)NC(=O)[C@H](Cc1ccc(O)cc1)NC(=O)[C@H](CC(=O)O)NC(=O)[C@H](CO)NC(=O)[C@@H](NC(=O)[C@H](Cc1ccccc1)NC(=O)[C@@H](NC(=O)CNC(=O)[C@H](CCC(=O)O)NC(=O)CCNC(=O)C(C)(C)c1cc(F)cc(C#N)c1)[C@@H](C)O)[C@@H](C)O)[C@@H](C)CC)[C@@H](C)CC)C(C)C)C(=O)N[C@@H](C)C(=O)NCC(=O)NCC(=O)N1CCC[C@H]1C(=O)N[C@@H](CO)C(=O)N[C@@H](CO)C(=O)NCC(=O)N[C@@H](C)C(=O)N1CCC[C@H]1C(=O)N1CCC[C@H]1C(=O)N1CCC[C@H]1C(=O)N[C@@H](CO)C(N)=O [Compound 254] ({Isobutyryl(2-(3-CN-5-F-Ph))-βAla}-EGTFTSDYSI[Aib]LDKIAQK([AEEA-AEEA-γGlu-C20 diacid])AFVQWLIAGGPSSGAPPPS-NH2; C-terminus assumed)
EC50 [1, 5]: > 1000 nM | EC50 [2, 6]: 0.1 to 1 nM | EC50 [3, 7]: > 1000 nM | EC50 [4, 8]: 1 to 10 nM

CC[C@H](C)[C@H](NC(=O)[C@H](CC(C)C)NC(=O)[C@H](Cc1c[nH]c2ccccc12)NC(=O)[C@H](CCC(N)=O)NC(=O)[C@@H](NC(=O)[C@H](Cc1ccccc1)NC(=O)[C@H](C)NC(=O)[C@H](CCCCNC(=O)COCCOCCNC(=O)COCCOCCNC(=O)CC[C@H](NC(=O)CCCCCCCCCCCCCCCCCCC(=O)O)C(=O)O)NC(=O)[C@H](CCC(N)=O)NC(=O)[C@H](C)NC(=O)[C@@H](NC(=O)[C@H](CCCCN)NC(=O)[C@H](CC(=O)O)NC(=O)[C@H](CC(C)C)NC(=O)C(C)(C)NC(=O)[C@@H](NC(=O)[C@H](CO)NC(=O)[C@H](Cc1ccc(O)cc1)NC(=O)[C@H](CC(=O)O)NC(=O)[C@H](CO)NC(=O)[C@@H](NC(=O)[C@H](Cc1ccccc1)NC(=O)[C@@H](NC(=O)CNC(=O)[C@H](CCC(=O)O)NC(=O)CCNC(=O)C1(c2cccnc2)CCCC1)[C@@H](C)O)[C@@H](C)O)[C@@H](C)CC)[C@@H](C)CC)C(C)C)C(=O)N[C@@H](C)C(=O)NCC(=O)NCC(=O)N1CCC[C@H]1C(=O)N[C@@H](CO)C(=O)N[C@@H](CO)C(=O)NCC(=O)N[C@@H](C)C(=O)N1CCC[C@H]1C(=O)N1CCC[C@H]1C(=O)N1CCC[C@H]1C(=O)N[C@@H](CO)C(N)=O [Compound 256] ({X60-βAla}-EGTFTSDYSI[Aib]LDKIAQK([AEEA-AEEA-γGlu-C20 diacid])AFVQWLIAGGPSSGAPPPS-NH2; C-terminus assumed)
EC50 [1, 5]: < 1000 nM | EC50 [2, 6]: 0.1 to 1 nM | EC50 [3, 7]: > 1000 nM | EC50 [4, 8]: 1 to 10 nM

CC[C@H](C)[C@H](NC(=O)[C@H](CC(C)C)NC(=O)[C@H](Cc1c[nH]c2ccccc12)NC(=O)[C@H](CCC(N)=O)NC(=O)[C@@H](NC(=O)[C@H](Cc1ccccc1)NC(=O)[C@H](C)NC(=O)[C@H](CCCCNC(=O)COCCOCCNC(=O)COCCOCCNC(=O)CC[C@H](NC(=O)CCCCCCCCCCCCCCCCCCC(=O)O)C(=O)O)NC(=O)[C@H](CCC(N)=O)NC(=O)[C@H](C)NC(=O)[C@@H](NC(=O)[C@H](CCCCN)NC(=O)[C@H](CC(=O)O)NC(=O)[C@H](CC(C)C)NC(=O)C(C)(C)NC(=O)[C@@H](NC(=O)[C@H](CO)NC(=O)[C@H](Cc1ccc(O)cc1)NC(=O)[C@H](CC(=O)O)NC(=O)[C@H](CO)NC(=O)[C@@H](NC(=O)[C@H](Cc1ccccc1)NC(=O)[C@@H](NC(=O)CNC(=O)[C@H](CCC(=O)O)NC(=O)CCCNC(=O)CNC(=O)Nc1cccc(F)c1)[C@@H](C)O)[C@@H](C)O)[C@@H](C)CC)[C@@H](C)CC)C(C)C)C(=O)N[C@@H](C)C(=O)NCC(=O)NCC(=O)N1CCC[C@H]1C(=O)N[C@@H](CO)C(=O)N[C@@H](CO)C(=O)NCC(=O)N[C@@H](C)C(=O)N1CCC[C@H]1C(=O)N1CCC[C@H]1C(=O)N1CCC[C@H]1C(=O)N[C@@H](CO)C(N)=O [Compound 260] ({X12-CO}-G[GABA]EGTFTSDYSI[Aib]LDKIAQK([AEEA-AEEA-γGlu-C20 diacid])AFVQWLIAGGPSSGAPPPS-NH2; C-terminus assumed)
EC50 [1, 5]: > 1000 nM | EC50 [2, 6]: 0.1 to 1 nM | EC50 [3, 7]: > 1000 nM | EC50 [4, 8]: 1 to 10 nM
